According to patent publication US7595299B2, “Peptides as NS3-serine protease inhibitors of hepatitis C virus” (priority 2000, dated 2009):
Read-outs that look alike come from different tables or passages of the source. Starred links: 1 amine or outer side, 2 acyl side, 3 side chain; linkers in the order of their positions; H or OH if unused. Non-standard residues stand in square brackets, D forms with d. Residues, ends and D or L forms follow the SMILES beside them. ξ: configuration not given here. *: point of attachment. ξ(3-Amino-2-oxohex-5-enoyl) = C=CCC(N[*:1])C(=O)C(=O)[*:2]; Benzoyl(2-COOH) = O=C(O)c1ccccc1C(=O)*; Isobutyloxycarbonyl = CC(C)COC(=O)*; X2 = O=C(C(=O)[*:2])C(CC1CC1)N[*:1]; Gly(cPent) = N[C@H](C(=O)O)C1CCCC1; X13 = CCCCCC12CCC(OC(=O)*)(CC1)CC2; NMeF = CN[C@@H](Cc1ccccc1)C(=O)O; X4 = CCCC(N[*:1])C(=O)C(=O)[*:2]; X34 = CC(C)(C(=O)*)c1ccc(Cl)cc1; Ala(cPr) = N[CH](CC1CC1)C(=O)O; AllylGly = C=CC[CH](N)C(=O)O; Chg = N[CH](C(=O)O)C1CCCCC1; Pen = CC(C)(S)[C@H](N)C(=O)O; Phg = N[CH](C(=O)O)c1ccccc1; Salicyloyl = O=C(c1ccccc1O)*; X28 = O=C(O)C1CCC(C(=O)*)CC1; ξPhg = NC(C(=O)O)c1ccccc1; Bn = c1ccc(C*)cc1

Target: Recombinant heterodimeric HCV NS3/NS4A protease (strain 1a) (Hepatitis C virus genotype 1a, UniProt P27958)
Test: biochemical
Method: Spectrophotometric Assay: Spectrophotometric assay for the HCV serine protease was performed on the inventive compounds by following the procedure described by R. Zhang et al, Analytical Biochemistry, 270 (1999) 268-275, the disclosure of which is incorporated herein by reference. The assay based on the proteolysis of chromogenic ester substrates is suitable for the continuous monitoring of HCV NS3 protease activity. The substrates were derived from the P side of the NS5A-NS5B junction sequence (Ac-DTEDVVX(Nva), where X=A or P) whose C-terminal carboxyl groups were esterified with one of four different chromophoric alcohols (3- or 4-nitrophenol, 7-hydroxy-4-methyl-coumarin, or 4-phenylazophenol). […] Materials and Methods:
Materials: Chemical reagents for assay related buffers were obtained from Sigma Chemical Company (St. Louis, Mo.). Reagents for peptide synthesis were from Aldrich Chemicals, Novabiochem (San Diego, Calif.), Applied Biosystems (Foster City, Calif.) and Perseptive Biosystems (Framingham, Mass.). Peptides were synthesized manually or on an automated ABI model 431A synthesizer (from Applied Biosystems). UV/VIS Spectrometer model LAMBDA 12 was from Perkin Elmer (Norwalk, Conn.) and 96-well UV plates were obtained from Corning (Corning, N.Y.). The prewarming block was from USA Scientific (Ocala, Fla.) and the 96-well plate vortexer was from Labline Instruments (Melrose Park, Ill.). A Spectramax Plus microtiter plate reader with monochrometer was obtained from Molecular Devices (Sunnyvale, Calif.).
Protein concentrations were determined by the Biorad dye method using recombinant HCV protease standards previously quantified by amino acid analysis. Prior to assay initiation, the enzyme storage buffer (50 mM sodium phosphate pH 8.0, 300 mM NaCl, 10% glycerol, 0.05% lauryl maltoside and 10 mM DTT) was exchanged for the assay buffer (25 mM MOPS pH 6.5, 300 mM NaCl, 10% glycerol, 0.05% lauryl maltoside, 5 μM EDTA and 5 μM DTT) utilizing a Biorad Bio-Spin P-6 prepacked column.
Substrate Synthesis and Purification: The synthesis of the substrates was done as reported by R. Zhang et al, (ibid.) and was initiated by anchoring Fmoc-Nva-OH to 2-chlorotrityl chloride resin using a standard protocol (K. Barlos et al, Int. J. Pept. Protein Res., 37 (1991), 513-520). The peptides were subsequently assembled, using Fmoc chemistry, either manually or on an automatic ABI model 431 peptide synthesizer. […] The combined filtrate and DCM wash was evaporated azeotropically (or repeatedly extracted by aqueous Na2CO3 solution) to remove the acid used in cleavage. The DCM phase was dried over Na2SO4 and evaporated.
The ester substrates were assembled using standard acid-alcohol coupling procedures (K. Holmber et al, Acta Chem. Scand., B33 (1979) 410-412). Peptide fragments were dissolved in anhydrous pyridine (30-60 mg/ml) to which 10 molar equivalents of chromophore and a catalytic amount (0.1 eq.) of para-toluenesulfonic acid (pTSA) were added. Dicyclohexylcarbodiimide (DCC, 3 eq.) was added to initiate the coupling reactions. […] Pyridine solvent was evaporated under vacuum and further removed by azeotropic evaporation with toluene. The peptide ester was deprotected with 95% TFA in DCM for two hours and extracted three times with anhydrous ethyl ether to remove excess chromophore. The deprotected substrate was purified by reversed phase HPLC on a C3 or C8 column with a 30% to 60% acetonitrile gradient (using six column volumes).

[1] = HCV protease continuous assay, Table 1, read-out: Ki* Range

Compound | Ki [1] | other results
CCCC(NC(=O)[C@H](CC(C)C)NC(=O)[C@@](C)(NC(=O)c1cc(Cl)c(Cl)cc1C(=O)O)C1CCCCC1)C(=O)C(=O)NCC(=O)N[C@H](C(=O)O)c1ccccc1 (stereo partly shown) [Example 82] | > 1000 nM | 
CCCC(NC(=O)[C@H](CC(C)C)NC(=O)[C@@H](NC(=O)OCC(C)C)C1CCN(C(=O)CC2CCCCC2)CC1)C(=O)C(=O)NCC(=O)N[C@H](C(=O)O)c1ccccc1 (stereo partly shown) [Example 56] | 101 to 1000 nM | 
CCCC(NC(=O)[C@H](CC(C)C)NC(=O)[C@@H](NC(=O)OCC(C)C)C1CCN(C(=O)[C@H](CC(C)C)NS(C)(=O)=O)CC1)C(=O)C(=O)NCC(=O)N[C@H](C(=O)O)c1ccccc1 (stereo partly shown) [Example 59] | 101 to 1000 nM | 
CCCC(NC(=O)[C@H](CC(C)C)NC(=O)[C@@H](NC(=O)OCC(C)C)C(C)(C)SCc1ccccc1)C(=O)C(=O)NCC(=O)N[C@H](C(=O)O)c1ccccc1 (stereo partly shown) [Example 90] (Isobutyloxycarbonyl-[Pen](Bn)L[X4]G[Phg]-OH) | 101 to 1000 nM | 
CCCC(NC(=O)[C@H](CC(C)C)NC(=O)[C@@H](NC(=O)OCC(C)C)C(C)(C)S)C(=O)C(=O)NCC(=O)N[C@H](C(=O)O)c1ccccc1 (stereo partly shown) [Example 88] (Isobutyloxycarbonyl-[Pen]L[X4]G[Phg]-OH) | 101 to 1000 nM | 
COC(=O)C(NC(=O)CNC(=O)C(=O)C(CC1CC1)NC(=O)C(CC1CC1)NC(=O)C(NC(=O)OCC(C)C)C1CCCCC1)c1ccccc1 (stereo not shown) [Example 105] (Isobutyloxycarbonyl-[Chg][Ala(cPr)][X2]G[Phg]-OMe; configuration not given here) | 101 to 1000 nM | 
CCCC(NC(=O)[C@H](CC(C)C)NC(=O)[C@@H](NC(=O)C1CCC(C(=O)O)CC1)C1CCCCC1)C(=O)C(=O)NCC(=O)N[C@H](C(=O)O)c1ccccc1 (stereo partly shown) (X28-[Chg]L[X4]G[Phg]-OH) |  | Ki (Table 3, solid phase compounds, read-out: Ki* CLASS): 101 to 1000 nM
CCCC(NC(=O)[C@H](CC(C)C)NC(=O)[C@@H](NC(=O)c1ccccc1C(=O)O)C1CCCC1)C(=O)C(=O)NCC(=O)N[C@H](C(=O)O)c1ccccc1 (stereo partly shown) [Example 75] ({Benzoyl(2-COOH)}-[Gly(cPent)]L[X4]G[Phg]-OH) | 101 to 1000 nM | 
CCCC(NC(=O)[C@H](CC(C)C)NC(=O)[C@@H](NC(=O)c1ccccc1O)C1CCCCC1)C(=O)C(=O)NCC(=O)N[C@H](C(=O)O)c1ccccc1 (stereo partly shown) [Example 71] (Salicyloyl-[Chg]L[X4]G[Phg]-OH) |  | Ki: 101 to 1000 nM
CCCC(NC(=O)[C@H](CC(C)C)NC(=O)[C@H](C1CCCCC1)N1C(=O)c2ccccc2C1=O)C(=O)C(=O)NCC(=O)N[C@H](C(=O)OCc1ccccc1)c1ccccc1 (stereo partly shown) [Example 67] | > 1000 nM | 
CCCCCC12CCC(OC(=O)N[C@H](C(=O)N[C@@H](CC(C)C)C(=O)NC(CCC)C(=O)C(=O)NCC(=O)N[C@H](C(N)=O)c3ccccc3)C3CCCCC3)(CC1)CC2 (stereo partly shown) [Example 1] (X13-[Chg]L[X4]G[Phg]-NH2) | > 1000 nM | 
CCCC(NC(=O)[C@H](Cc1ccccc1)N(C)C(=O)[C@@H](NC(=O)OCC(C)C)C1CCCCC1)C(=O)C(=O)NCC(=O)NC(C(=O)N(C)C)c1ccccc1 (stereo partly shown) [Example 129] (Isobutyloxycarbonyl-[Chg][NMeF][X4]G[ξPhg]-NMe2) | > 1000 nM | 
CCCC(NC(=O)[C@H](CC(C)C)NC(=O)[C@@H](NC(=O)OC(C)(C)C)C1CCCCC1)C(=O)C(=O)NCC(=O)NC(C(=O)OC)(c1ccccc1)c1ccccc1 (stereo partly shown) [Example 20] | > 1000 nM | 
CC(C)COC(=O)N[C@H](C(=O)N[C@@H](CC(C)C)C(=O)NC(CC(C)C)[13C](=O)C(=O)NCC(=O)N[C@H](C(=O)O)c1ccccc1)C1CCCCC1 (stereo partly shown) [Example 32] | 101 to 1000 nM | 
C=CCC(NC(=O)C(NC(=O)OCC(C)C)C1CCCCC1)C(=O)NC(CC=C)C(=O)C(=O)NCC(=O)NC(C(=O)O)c1ccccc1 (stereo not shown) [Example 97] (Isobutyloxycarbonyl-[Chg][AllylGly][ξ(3-Amino-2-oxohex-5-enoyl)]G[Phg]-OH; configuration not given here) | < 100 nM | 
CCCC(NC(=O)[C@H](CC(C)C)NC(=O)[C@@H](NC(=O)C(C)(C)c1ccc(Cl)cc1)C1CCCCC1)C(=O)C(=O)NCC(=O)N[C@H](C(=O)O)c1ccccc1 (stereo partly shown) [Example 102] (X34-[Chg]L[X4]G[Phg]-OH) | 101 to 1000 nM | 
